Measurements: PMC5933922
Results are given in words; binding and its absence hold for the method and conditions named. In cells and extracts the contact can be indirect. Some binding calls cover weakened binding; strength is not graded here.

The chains behind the UniProt entries cited, without tags or fusion partners. Where a name states a change or a piece, a line headed by the entry shows the natural chain unless it says otherwise. Residues count along the entry.
UniProt O75970: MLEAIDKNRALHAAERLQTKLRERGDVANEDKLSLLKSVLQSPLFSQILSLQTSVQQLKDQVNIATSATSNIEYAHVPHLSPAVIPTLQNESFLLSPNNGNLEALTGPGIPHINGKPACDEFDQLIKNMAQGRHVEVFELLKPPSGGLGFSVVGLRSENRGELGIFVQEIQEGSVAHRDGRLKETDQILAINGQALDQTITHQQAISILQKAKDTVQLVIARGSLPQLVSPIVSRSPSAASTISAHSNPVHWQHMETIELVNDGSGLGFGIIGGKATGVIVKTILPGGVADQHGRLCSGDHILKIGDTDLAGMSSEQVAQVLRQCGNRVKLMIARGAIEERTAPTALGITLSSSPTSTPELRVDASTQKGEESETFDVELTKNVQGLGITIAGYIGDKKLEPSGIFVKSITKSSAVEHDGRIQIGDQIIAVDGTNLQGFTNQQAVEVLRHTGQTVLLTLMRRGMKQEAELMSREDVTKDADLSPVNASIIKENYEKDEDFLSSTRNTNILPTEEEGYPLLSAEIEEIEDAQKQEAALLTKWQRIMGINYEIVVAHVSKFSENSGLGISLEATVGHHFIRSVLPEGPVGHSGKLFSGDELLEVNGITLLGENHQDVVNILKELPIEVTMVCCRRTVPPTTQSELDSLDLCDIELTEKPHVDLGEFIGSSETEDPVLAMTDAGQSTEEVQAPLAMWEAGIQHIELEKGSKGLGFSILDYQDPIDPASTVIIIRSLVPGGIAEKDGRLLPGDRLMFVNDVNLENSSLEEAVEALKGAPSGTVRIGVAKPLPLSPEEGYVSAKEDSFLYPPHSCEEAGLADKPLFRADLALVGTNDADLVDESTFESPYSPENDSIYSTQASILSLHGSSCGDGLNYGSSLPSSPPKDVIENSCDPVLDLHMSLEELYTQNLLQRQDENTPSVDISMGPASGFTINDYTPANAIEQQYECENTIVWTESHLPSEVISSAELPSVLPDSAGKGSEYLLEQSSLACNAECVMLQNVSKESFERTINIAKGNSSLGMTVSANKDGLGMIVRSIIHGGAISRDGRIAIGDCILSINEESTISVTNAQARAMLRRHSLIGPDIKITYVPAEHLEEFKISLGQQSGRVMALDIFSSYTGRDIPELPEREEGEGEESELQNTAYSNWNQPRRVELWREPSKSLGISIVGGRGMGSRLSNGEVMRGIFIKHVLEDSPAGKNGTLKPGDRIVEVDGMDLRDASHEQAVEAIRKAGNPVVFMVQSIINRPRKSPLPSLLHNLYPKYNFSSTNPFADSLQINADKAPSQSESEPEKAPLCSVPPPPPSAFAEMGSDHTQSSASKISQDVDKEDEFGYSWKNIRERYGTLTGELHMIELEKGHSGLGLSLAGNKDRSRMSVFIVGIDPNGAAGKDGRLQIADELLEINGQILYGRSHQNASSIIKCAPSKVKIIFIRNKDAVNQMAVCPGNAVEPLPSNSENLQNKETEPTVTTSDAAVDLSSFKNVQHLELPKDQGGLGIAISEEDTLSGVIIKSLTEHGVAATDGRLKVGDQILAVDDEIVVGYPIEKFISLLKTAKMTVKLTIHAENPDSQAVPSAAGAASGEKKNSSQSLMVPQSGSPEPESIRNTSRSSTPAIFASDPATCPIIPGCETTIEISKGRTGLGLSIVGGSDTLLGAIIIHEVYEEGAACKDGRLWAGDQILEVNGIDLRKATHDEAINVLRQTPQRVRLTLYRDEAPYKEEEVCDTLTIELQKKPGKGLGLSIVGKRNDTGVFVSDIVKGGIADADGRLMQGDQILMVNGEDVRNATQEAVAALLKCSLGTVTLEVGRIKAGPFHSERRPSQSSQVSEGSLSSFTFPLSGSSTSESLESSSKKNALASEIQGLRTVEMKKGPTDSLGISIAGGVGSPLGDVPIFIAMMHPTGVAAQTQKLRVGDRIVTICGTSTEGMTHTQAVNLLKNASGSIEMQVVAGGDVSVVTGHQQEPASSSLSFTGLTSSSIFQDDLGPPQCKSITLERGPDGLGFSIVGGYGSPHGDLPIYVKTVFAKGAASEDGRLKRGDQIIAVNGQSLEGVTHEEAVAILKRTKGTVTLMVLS
UniProt Q61483, residues 18-722: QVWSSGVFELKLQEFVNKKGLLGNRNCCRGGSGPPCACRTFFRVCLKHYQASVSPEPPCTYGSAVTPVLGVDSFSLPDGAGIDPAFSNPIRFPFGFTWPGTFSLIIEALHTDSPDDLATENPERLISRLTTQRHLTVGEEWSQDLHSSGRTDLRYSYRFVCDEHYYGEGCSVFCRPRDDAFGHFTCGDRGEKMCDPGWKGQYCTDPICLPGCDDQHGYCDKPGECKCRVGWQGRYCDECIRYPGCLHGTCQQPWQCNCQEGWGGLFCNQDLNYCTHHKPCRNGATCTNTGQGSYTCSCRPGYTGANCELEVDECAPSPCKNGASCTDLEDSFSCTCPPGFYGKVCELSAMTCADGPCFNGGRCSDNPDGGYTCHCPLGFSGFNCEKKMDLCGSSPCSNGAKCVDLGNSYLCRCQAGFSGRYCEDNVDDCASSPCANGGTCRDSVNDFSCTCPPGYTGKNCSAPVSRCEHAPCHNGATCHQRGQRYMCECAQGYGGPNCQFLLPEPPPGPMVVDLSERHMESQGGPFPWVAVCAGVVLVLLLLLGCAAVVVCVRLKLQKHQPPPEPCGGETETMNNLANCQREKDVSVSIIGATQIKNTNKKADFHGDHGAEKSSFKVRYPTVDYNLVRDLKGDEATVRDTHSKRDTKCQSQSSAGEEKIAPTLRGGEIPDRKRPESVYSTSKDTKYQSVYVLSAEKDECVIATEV
UniProt O00548: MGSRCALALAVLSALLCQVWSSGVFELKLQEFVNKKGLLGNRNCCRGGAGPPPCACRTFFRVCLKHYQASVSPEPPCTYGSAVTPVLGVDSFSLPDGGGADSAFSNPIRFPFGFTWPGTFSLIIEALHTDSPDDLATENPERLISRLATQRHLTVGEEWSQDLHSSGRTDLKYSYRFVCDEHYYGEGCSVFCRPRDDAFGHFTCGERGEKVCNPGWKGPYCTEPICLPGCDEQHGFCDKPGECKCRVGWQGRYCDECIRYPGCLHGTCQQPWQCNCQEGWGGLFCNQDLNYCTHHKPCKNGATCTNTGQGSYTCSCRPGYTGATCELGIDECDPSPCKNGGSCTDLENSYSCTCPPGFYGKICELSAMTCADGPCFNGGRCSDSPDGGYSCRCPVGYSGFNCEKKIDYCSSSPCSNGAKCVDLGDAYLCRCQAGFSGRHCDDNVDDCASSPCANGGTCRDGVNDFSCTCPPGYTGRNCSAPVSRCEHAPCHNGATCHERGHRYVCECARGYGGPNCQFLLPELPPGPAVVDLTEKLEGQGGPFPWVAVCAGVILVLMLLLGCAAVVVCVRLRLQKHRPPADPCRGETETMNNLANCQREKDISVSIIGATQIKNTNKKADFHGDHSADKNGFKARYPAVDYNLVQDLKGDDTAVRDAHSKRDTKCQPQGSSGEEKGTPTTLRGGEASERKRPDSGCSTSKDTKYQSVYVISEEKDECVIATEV
UniProt Q9NR61: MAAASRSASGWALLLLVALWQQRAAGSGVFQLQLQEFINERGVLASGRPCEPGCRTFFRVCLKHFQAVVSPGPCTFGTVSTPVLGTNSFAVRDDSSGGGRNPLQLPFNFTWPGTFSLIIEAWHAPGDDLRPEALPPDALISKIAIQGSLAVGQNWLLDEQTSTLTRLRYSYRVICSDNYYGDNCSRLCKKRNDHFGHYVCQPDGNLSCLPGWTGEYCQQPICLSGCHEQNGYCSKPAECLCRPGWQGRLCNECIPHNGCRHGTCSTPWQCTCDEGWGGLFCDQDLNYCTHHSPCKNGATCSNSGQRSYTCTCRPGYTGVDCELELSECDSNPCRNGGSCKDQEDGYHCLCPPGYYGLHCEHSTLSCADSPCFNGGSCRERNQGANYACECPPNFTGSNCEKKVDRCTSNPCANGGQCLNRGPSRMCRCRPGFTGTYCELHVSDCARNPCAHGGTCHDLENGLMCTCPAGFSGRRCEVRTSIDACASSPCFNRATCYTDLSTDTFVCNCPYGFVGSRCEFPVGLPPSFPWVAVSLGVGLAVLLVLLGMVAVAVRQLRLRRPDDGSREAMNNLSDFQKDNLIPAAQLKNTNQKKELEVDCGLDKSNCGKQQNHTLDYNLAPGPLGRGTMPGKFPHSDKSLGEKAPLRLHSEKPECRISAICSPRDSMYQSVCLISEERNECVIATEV
UniProt Q8VBX6: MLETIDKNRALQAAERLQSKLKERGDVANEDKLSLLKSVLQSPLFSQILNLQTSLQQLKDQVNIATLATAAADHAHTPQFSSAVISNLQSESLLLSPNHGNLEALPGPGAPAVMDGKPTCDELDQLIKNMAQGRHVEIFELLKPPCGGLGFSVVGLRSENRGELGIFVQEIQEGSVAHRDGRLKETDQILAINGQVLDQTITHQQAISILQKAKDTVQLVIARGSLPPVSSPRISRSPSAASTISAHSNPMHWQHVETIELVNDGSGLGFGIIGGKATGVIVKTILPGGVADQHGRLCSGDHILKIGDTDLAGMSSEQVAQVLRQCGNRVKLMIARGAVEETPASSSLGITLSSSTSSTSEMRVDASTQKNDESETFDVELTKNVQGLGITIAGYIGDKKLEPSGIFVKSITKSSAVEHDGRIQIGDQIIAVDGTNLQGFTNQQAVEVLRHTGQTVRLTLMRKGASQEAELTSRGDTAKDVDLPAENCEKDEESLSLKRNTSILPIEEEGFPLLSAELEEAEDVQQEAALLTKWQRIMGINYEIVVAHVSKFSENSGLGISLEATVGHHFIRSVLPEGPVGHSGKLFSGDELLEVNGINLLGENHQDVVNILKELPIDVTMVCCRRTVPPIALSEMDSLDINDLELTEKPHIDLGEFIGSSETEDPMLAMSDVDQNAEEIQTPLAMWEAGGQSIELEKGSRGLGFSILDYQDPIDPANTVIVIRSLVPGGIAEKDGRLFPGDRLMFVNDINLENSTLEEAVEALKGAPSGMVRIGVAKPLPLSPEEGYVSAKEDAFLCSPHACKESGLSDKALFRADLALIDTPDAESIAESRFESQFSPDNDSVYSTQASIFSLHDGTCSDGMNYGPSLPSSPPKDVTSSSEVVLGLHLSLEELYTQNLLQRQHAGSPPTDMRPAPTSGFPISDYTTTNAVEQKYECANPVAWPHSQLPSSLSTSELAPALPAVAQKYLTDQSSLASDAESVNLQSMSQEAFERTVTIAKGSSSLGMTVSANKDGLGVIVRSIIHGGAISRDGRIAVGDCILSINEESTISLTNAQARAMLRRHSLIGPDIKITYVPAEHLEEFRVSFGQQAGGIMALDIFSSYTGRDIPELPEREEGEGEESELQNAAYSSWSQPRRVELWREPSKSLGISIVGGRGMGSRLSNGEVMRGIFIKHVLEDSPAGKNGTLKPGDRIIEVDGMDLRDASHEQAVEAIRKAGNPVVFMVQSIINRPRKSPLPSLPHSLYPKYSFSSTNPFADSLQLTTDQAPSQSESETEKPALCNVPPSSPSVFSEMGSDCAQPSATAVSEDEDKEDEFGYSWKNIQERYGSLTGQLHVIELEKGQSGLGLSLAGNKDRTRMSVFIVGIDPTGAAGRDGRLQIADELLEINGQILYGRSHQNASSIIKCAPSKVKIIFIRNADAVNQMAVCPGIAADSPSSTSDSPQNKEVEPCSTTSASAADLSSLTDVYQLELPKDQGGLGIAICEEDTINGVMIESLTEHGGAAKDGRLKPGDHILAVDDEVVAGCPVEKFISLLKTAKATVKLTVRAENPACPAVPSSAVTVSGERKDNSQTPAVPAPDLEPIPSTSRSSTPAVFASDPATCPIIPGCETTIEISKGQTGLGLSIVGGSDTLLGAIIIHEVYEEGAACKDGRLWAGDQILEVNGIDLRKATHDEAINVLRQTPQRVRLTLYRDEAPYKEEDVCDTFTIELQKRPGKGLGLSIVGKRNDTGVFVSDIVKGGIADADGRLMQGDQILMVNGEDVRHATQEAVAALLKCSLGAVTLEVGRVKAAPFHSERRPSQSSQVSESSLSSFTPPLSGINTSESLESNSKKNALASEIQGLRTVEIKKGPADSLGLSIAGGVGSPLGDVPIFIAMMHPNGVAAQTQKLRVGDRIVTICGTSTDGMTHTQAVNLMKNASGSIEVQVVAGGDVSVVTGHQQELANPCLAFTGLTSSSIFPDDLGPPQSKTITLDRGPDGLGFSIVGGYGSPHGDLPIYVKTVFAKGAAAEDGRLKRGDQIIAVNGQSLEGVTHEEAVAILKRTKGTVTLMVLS

Tests used:
[1] = biological target: Citrine-MPDZ (multiple PDZ domain protein fused with an amino-terminal fluorescent Citrine) (UniProt O75970); test: co-IP; HEK293T cells co-transfected with Citrine-MPDZ and tagged DLL1/DLL4 constructs; antibodies against Citrine precipitate Citrine-MPDZ; HA and FLAG detected by immunoblot; antibody overnight at 4°C, protein-G dynabeads
[2] = biological target: Dll4 (mouse kidney) (mouse (endogenous in kidney)) (UniProt Q9JI71); test: co-IP; lysates of mouse kidneys; Dll1 or Dll4 precipitated with specific antibodies; Mpdz detected by immunoblot
[3] = biological target: Dll1 (mouse kidney) (mouse (endogenous in kidney)) (UniProt Q61483); test: as above
[4] = biological target: HA-tagged DLL1 (full-length) (UniProt O00548); test: co-IP; HEK293T control cells (sh-ctrl) and MPDZ-silenced HEK293T cells (sh-MPDZ) transfected with SYNJ2BP and HA-DLL1 or Flag-DLL4; DLL1 antibody or Flag antibody for precipitation; SYNJ2BP detected by Western blot
[5] = biological target: Flag-tagged DLL4 (full-length) (UniProt Q9NR61); test: as above

binding [1]	Molecule	also measured
binds	Flag-tagged DLL4 (full-length) (from UniProt Q9NR61 27-685)	
no binding	Flag-tagged DLL4ΔPDZ (DLL4 lacking the carboxyterminal PDZ-binding site, amino acids IATEV) (from UniProt Q9NR61 27-680) (domain or fragment)	
binds	HA-tagged DLL1 (full-length) (from UniProt O00548 18-723)	
no binding	HA-tagged DLL1ΔPDZ (DLL1 lacking the carboxyterminal PDZ-binding site, amino acids IATEV) (from UniProt O00548 18-718) (domain or fragment)	
	Mpdz (mouse kidney) (from UniProt Q8VBX6 1-2055)	binding [2]: binds; binding [3]: binds
	SYNJ2BP (protein, UniProt P57105 1-145) MNGRVDYLVTEEEINLTRGPSGLGFNIVGGTDQQYVSNDSGIYVSRIKENGAAALDGRLQEGDKILSVNGQDLKNLLHQDAVDLFRNAGYAVSLRVQHRLQVQNGPIGHRGEGDPSGIPIFMVLVPVFALTMVAAWAFMRYRQQL	binding [4]: binds; binding [5]: binds
